Measurements taken from the RNAGym collection of RNA variant scans (doi:10.1073/pnas.2313332121).
Variants at the floor of the assay are shown more often than the library holds them.

B1: TPR 5TU (parent)
chain: GGAUCUUCUCGAUCUAACAAAAAAGACAAAUCUGCCACAAAGCUUGAGAGCAUCUUCGGAUGCAGAGGCGGCAGCCUUCGGUGGCGCGAUAGCGCCAACGUUCUCAACUAUGACACGCAAAACGCGUGCUCCGUUGAAUGGAGUUUAUCAUG

Variants of: B1
Assay: polymerase ribozyme fitness, log enrichment relative to wild type (log ratio); higher = more active; in vitro selection for triplet polymerase activity
Method in brief: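 After PCR construction and transcription, each subunit's mutant library from a heterodimeric triplet polymerase ribozyme was annealed with a biotinylated primer, the partner subunit and triplets. Incubation was frozen, at −7 °C, and extended constructs were gel-excised, bound to streptavidin beads and amplified by RT-PCR, in one selection round done in triplicate. Fitness is the logarithm of a genotype's enrichment divided by that of the wild type, from inverse-variance-weighted replicate averages of Illumina-sequenced inputs and outputs. The base of the logarithm is 2, and genotypes needed ≥10 input reads and ≥1 read per output.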

Variant | polymerase ribozyme fitness (log ratio)
GGAUCUUCUCGAUCUAACAAAAAACACGAAUCUGCCACAAAGCUUUAAAGCAUCUUCGCAUGCAGAGGCGGCAACCUUCGGUGGCGCGAUAGCGCCAACGUUCUCAACUAUGACACGCUAAACGCGUGCUCCGUUGAAUGGAGUUUAUCAUG | ≤ -4.2
GGAUCUUCUCGAUCUAACAAAAAACACGAAUCUGCCACAAAGCUUGAGAGCAUCUUCGGAUGCAGAGGCGGCAGCCUUCCGUAGCGCGAUAGCGCCAACGUUCUCAACUAUGACACGCAAAACGCGUGCUCCGUUGAAUGGAGUUUAUCAUG | -4.19
GGAUCUUCUCGAUCUAACAAAAAACACUAAUCUGCCACAAAACUUGAGAGCAUCUUCGGAUGCAGAGGCGGCAGCCUUCGGUGGCGCGAUAGCGCGAACGUUCUCAACGAUGACACGCAAACCGCGUGCUCCGAUGAAAGGAGCUUAUCAUG | ≤ -4.2
GGAUCUUCUCGAUCUAACAAAAAACACACAUCUGCCACAAAGCUUGAGAGCAUCUUCGGAUGCAGAAGGGGCAGCCUUCGGUGGGGCGAUAGUGCCAACGUUCUCAACUAUGACACGCAAAACGCGUGCUCCGUUUAAUGUAGUUUAUCAUG | ≤ -4.2
GGAUCUUCUCGAUCUAACAAAAAACACACAUCUGCCACAAAGCUAGAGAGCAUCUACGGAUGCAGAGGCAGCCGCCUUCGGUGGCGCCAUAGCGCCAACGUUCUCAACUAUGACGCGCAAAACGCGUGCUCCGUUGAAUGGAGUUUAUCAUA | ≤ -4.2
GGAUCUUCUCGAUCUAACAAAAAACACAAUUCUGCCACAAAGCUUGAGAGCAUCUUCGGAUGCAGAGGCGGCAGCCUCCGGUGGCGCGAUAGCGCGAACGUUCUCAACUAUGACACGCAAAACGCGUGCUCCGUUGAAUGGAGUUUAUCAUG | -3.97
GGAUCUUCUCGAUCUAACAAAAAACACAAAUCUGCCCCAAAGCUUGAGAGCAUCUUCGGAUGCAGAGGCGGCAGCCUUCGGUGGCGCGAUAGCCCCAACGUUCUCAACUAUGACACGCAAAAGGCGUGCUCCGUUGAAUGAAGUUUAUCAUG | ≤ -4.2
GGAUCUUCUCGAUCUAACAAAAAACACAAAUCUGCCACGAAGCUUGAGAGCAUCUUCGGAUGCAGGGGCGGCAACCUUCGGUGGCGCGAUAGCGCCAACGUUCUCAACUAUGACACGCAAAACGCGUGCUCUGUUGAAUGGAGUUUAUCCUG | ≤ -4.2
GGAUCUUCUCGAUCUAACAAAAAACACAAAUCUGCCACUAAGCUUGAGAGCAUCUUCGGAUGCAGAGGCGGCAGCCUUCGGUGGCGCGAUAGCGCCAACGUUCUCAACUAUGACCCGCAAAACGCGUGCUCCGUUGAAUGGAGUUUAUCAUG | ≤ -4.2
GGAUCUUCUCGAUCUAACAAAAAACACAAAUCUGCCACUAAGCCUGAGAGCAUCUUCGGAUGCAGAGGCGGCAGCCUUCGGUGGCGCGAUGGCGUCAACGUUCUCAACUAUGACACGCAAAACGCGUGCUCCGUUGAAUGGAGUUUAUCAUG | ≤ -4.2
GGAUCUUCUCGAUCUAACAAAAAACACAAAUCUGCCACACAGCUUGAGAGCAUCUUCCGAUGCAGAGGCGGCAGCCUUCGGUGGCGCGAUAGCGUCAACGUUCUCAACUAUGACACGCAAAACGCGUGCUGCGUUGAAUGGAGUUUAUCAUG | ≤ -4.2
GGAUCUUCUCGAUCUAACAAAAAACACAAAUCUGCCACAACGCUUGCGAGCAUCUUCGGAUGCAGAGGCGGCAGCCUUCGGUUGCGCGUUAGCGCCAACGUUCUCAACUAUGACACGCAACACGGGUGCUCCGUUGAAUGGCGUUUAUGUUA | ≤ -4.2
GGAUCUUCUCGAUCUAACAAAAAACACAAAUCUGCCACAACGCUUGAGAGCGUCUUCGGAUGCAGAGGCGGCAGCCUUCGGUGGCACGAUAGCGCAAACGUUCUCAACUAUGACACGCAAAACGCGUGCUCCGUUGAAUGGAGUUUAUCAUG | ≤ -4.2
GGAUCUUCUCGAUCUAACAAAAAACACAAAUCUGCCACAACGCUUGAGAGCAUCUUCGGAUGCAGAGGCGCCAGCCUUCGGUGGCGCGAUAGCGGCAACGUUCGCAACUAUGACACGCAAAACGCGUGCUCCGUUGAAUGGAGUUUAUCAUG | ≤ -4.2
GGAUCUUCUCGAUCUAACAAAAAACACAAAUCUGCCACAAAGCUUGAGCGCAUCUUCGGAUGCAGAGGCGGCAGCCUUCGGUGGCGCGAUAGGGCCAACGUUCUCAACUAUGACACGCAAAACGCGUGCUCCGUUGAAUGGAGUUUAUCAUG | ≤ -4.2
GGAUCUUCUCGAUCUAACAAAAAACACAAAUCUGCCACAAAGCUUGAGCGCAUCUACGGAUGCAGAGGCGGCAGCCUUCGGUGGUGCGAUAGCGCCAACGUUCUCAACUAUGACACGCAAAACGCGUGCUCCGUUGAAUGGAUUUUAUCAUG | ≤ -4.2
GGAUCUUCUCGAUCUAACAAAAAACACAAAUCUGCCACAAAGCUUGAGGGCAUUUUCGGAUGCGGAGGCGGCAGCCUUCGGUGGCGCGAUAGCGCCAACGUUCUCAGCUAUGACACGCAAAACGCGUGCUCCGUUGAAUGUAGUUUAUCAUG | ≤ -4.2
GGAUCUUCUCGAUCUAACAAAAAACACAAAUCUGCCACAAAGCUUGAGAGCCACUUCGGAUGCAGAGGCGGCAGCCUUCGGUGGCGUGAUACCGCCAGCGUUCGCAAGUAUGACACGCAAAACGCGUGCUCCGUGGAAUGGAGUUUAUCAUG | ≤ -4.2
GGAUCUUCUCGAUCUAACAAAAAACACAAAUCUGCCACAAAGCUUGAGAGCUUCUUCGGAUGCAGAGGCGGCAGCCUUCGGUGGCGCUAUAGCGCCAACGUUCUCAACUGUGACACGUAAAACGCGUGCUCCGUUGAAUGGAGUUUAUCAUG | ≤ -4.2
